This is an account of results in the supplement of paper PMC12632987.

B1: GBRAP_160_4242 (protein)
chain: EERLKRLEEEIREEAEVLLEALLESPKSQWPAFARAAAGDWVQLVIEDPNATEELEEEVDRLAEETAEELVAAKDASPEELRALLERGAERIVEAVRKML
B2: GBRAP_39_5680 (protein)
chain: EEEEENEDTVSYLEGVAAKYLYETGKSEEEALKEAKKVLKEYAEKHPELKELLEELIELAEKKGEEAKLALIGVAVLIKEGTPLEEIKEKIEKIIAYFKS
B3: GBRAP_186_5376 (protein)
chain: DEELEEKMDEIIDKLEAEGYRVIVVDTITELTEEEKEAIRRDVEAAGALAKETGQKIALVIPFKGSKEEVEEAKKFIAELNKEAEAASGLKVVLAAKVVE
B4: GBRAP_11_2826 (protein)
chain: EKEKLKELAEKAEEIAKELKRLIASGNPSEEELKELLKKAKELLELTKKYGDESETKLAEILLEEIEEAIADPENQQEHLQHALAFAEVLEGQYLLRYDE
B5: GBRAP_160_4099 (protein)
chain: SEEIEELIEEIEELKEETKEMIKGETNEERATIVEGFGGDVLMLLFSSGLVSEEVEEYADELFDELVATIRANPDLTEEEIIALIEEVVEEVKEKIKEEH
B6: GBRAP_52_6364 (protein)
chain: MLEEAVKKLREAVEAQLAGKEEEMDKILREIVENFSEETIVAAVERVAEEVLEKSLEEAEAFLETAIRLADIMREAGRDEAAADEIEAIAARAYMAVLEK
B7: GBRAP_128_3402 (protein)
chain: SEAEAVARAAALVAAIVEADVATARALARELMALFGTLSLAAQERVAAVVRAALPKLTAEKLDVLADVAREQRPAFTPEAQDIINDWEVDALNAAEEKEE
B8: GBRAP_11_2733 (protein)
chain: KKEKLKEIAEAAERLAELLARLIEEGPEDEELRAEAREALERLAELVEKYGDEDEKKLVEIIREEFERAEEDPENAVAHLERALAAARVLEGQVLLEIEE
B9: GBRAP_128_3442 (protein)
chain: SQEELLKKAFELLDKIVKSDVETAKKLTKELAEVLKQLDEEGRDKVVEYFEKKAKKLSEEKLEAVADALREQIPQADPLTANYLAEMIVILGERILELEE
B10: GBRAP_11_2673 (protein)
chain: MKEKLLEAAELAEKAAKLVEELIKEGVDNEELLKELKKLLEELKKLAKEYLSKALQKDVEVAEELFKELLEDEENRLEYAEQLLAALRVLEGNLLLEADE
B11: GBRAP_57_6469 (protein)
chain: MERLEKVEEHTERALALIDARAPAEEVLAEFRKALEELSEETLRDVALIVDPEFDYEASREEAIAHLLALLREALEAGDYARARRIVETVDGQAEMEYVE
B12: GBRAP_35_5546 (protein)
chain: DSDRETVEMLLNTMEDIVLALPDVSPEEQLTLAEHLIDLAELAIEEKPKDKELLKRLIEALEEAIKLVEASDLPEEKREELIKRLEEAKEEAEKLLKEVE
B13: GBRAP_95_7032 (protein)
chain: EDDKLAVESDIEVAIAAAELGDEDAAARALRRALEGLKKAGKVKLDEELLKETIKVILEVGVKKLPKEEVLELLELLKESAETEEVKELAEKAIEEVKKR
B14: GBRAP_52_6194 (protein)
chain: MRAELRAKAEEIVALVKAGREAEARAMMRELARTLSEEELRLLGEEFAELAAEAAPEDFDAVFRAAEMFADVLLEEGHDEVLADDLLARVAAALYKRELA
B15: GBRAP_57_6456 (protein)
chain: MSRLEKIEEAAKAAHKALEEGKPVEEVLKEVRKMLELMDKETLLDVALILDPNTDMDLSKEELIEYIVEIVRRAAEEEGPEAVRAAVDLIEGQAEMSAVE
B16: GBRAP_128_3162 (protein)
chain: AVEEAKKYTKELMEKIKNSSLEEVKKITEEIMEKMKESTDEEQEAMADVILEELPKLSKEKLEIIADVFEKLRPELSPFGQEQVNDVLVAALNEAEELEE
B17: GBRAP_195_5414 (protein)
chain: MKVVGVAVTASADDTPEQIEAKMLEAVRAAIAAHGGDVVVALRVHPSHSLAEAEAVAERVRAATADVRVTVEIFRDESLTEEQLQRFAEMEALNEELERE
B18: GBRAP_83_6959 (protein)
chain: MITVVATSDPASIRSAVDAAIDLHKEEGEEVDLEILLTAASAATAVAEVGRLIDAGVEADITLVADEADAAAARAAAAAIRARAAAAGRNVRVELVILPA
B19: GBRAP_125_3030 (protein)
chain: HMEELAEDLGLIARALGFSEGDVALLRENALAHGIKGAMIALALAEGDEELAELLEKLTEEEVAEVVRRVAEELRRNPELTPEEVKELILEKAKEAVEKS
B20: GBRAP_160_4757 (protein)
chain: KEELKKLKKEIEEIFEEHLKILKEVPASEAPTVVRGAMGEVLMTVMSSDAASDELEEKIGEILDEAEAEVEANKDKPVEYHIEVLKEAKEKILKLIEEEI
B21: GBRAP_74_6514 (protein)
chain: MAALLAALEAAAAAGDAAAVAALAREIIATGSLADIERAARIVVAFVEKNIDTLTEEEKELLADVLAELADELMDRGGDSEVITAVATAAYTLEKEIEAA
B22: GBRAP_55_6430 (protein)
chain: SEDDEDTELAAETLLELAAANVDDPAALQAYVDRLMEVAKDKPVTATLSPVPLEEAERLYEKLTAALTAAAAKHGLDVKVELERDEETGTASIVVTITPK
B23: GBRAP_160_4119 (protein)
chain: NEKLLKTAEDNAKDFEETIKEIEDLSPEEAGTLAIVTLGEAILDASEHDGAFEELEEKAEALEDALRATAATDPARLKEASLAALKEARDAFEKKAKELK
B24: GBRAP_39_5681 (protein)
chain: EEKEELELEVSYLEAIAAKYLYETGLSFEEALKEAKEILEKYAKENPELKELIEELIKLAEEKGEEAQLVLIGIAEKIKKGTPKEEIKKDIENAIKYFKS
B25: GBRAP_160_4228 (protein)
chain: METVEKIVEIFRETFLEALELIEGESEEERRVILDVAVGEIILEVEEIEEATDEMVEIVDERAEKLAERLLAARDASREERRALVEEEAKKLREELEKLA
B26: GBRAP_128_3593 (protein)
chain: SSEEVKKYVKEKVEAMKKADKETRKKIADELFEKILTLSDEEQEVAFETLEELLPELSAEDLEILADALRKHRPKFTPEGANLAADLEVEALNEAEELEE
B27: GBRAP_125_3092 (protein)
chain: AAAALAADLAALARALGFSDEDAAELAALAAASSVRQALYALFAAEGYEEAADLVAQLTEEEAAAVLAALAAWLAAHPDASREEVVAQVRALAREALAAR
B28: GBRAP_184_5315 (protein)
chain: EVIRRFITVETKEEAEKKLKEIKEEIKKSGKKYTVYIEVKNPTKELIDTVFEEIKKMKEEGVDADFILVVEEPVDEEMEDYIVEKAKEAGARAVIALPEE
B29: GBRAP_42_5725 (protein)
chain: KHKITLELYVETLEELREAVKIVEELNEKYLKEHGIIIELIVTAPEEAKEEAEKVNAKFAEKAKQATSESDWVVVAASAKEVEKAIEAAVDLALEEIKEK

Whole data set: some 4,500 sequences, median “median log2 fold change of GCK-ALFA target abundance (FLAG IP / Myc IP barcode read proportion)” near 0.078, cut for the lowest 2% near -0.6. This is one part of the list.

The target of the assay is GABARAP, O95166. As to the kind of experiment: median log2 fold change of GCK-ALFA target abundance (FLAG IP / Myc IP barcode read proportion) (log2 ratio); each designed protein is fused to an ALFA-tag nanobody in HEK293 cells to bring the named protein to FLAG-tagged glucokinase (GCK); Myc marks an untargeted standard; higher = target protein stabilised (more abundant). To be noted: target protein: 3xFLAG-MCP-GCK-ALFA reporter; HEK293 landing pad (RPLP). Put shortly: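 The readout is target abundance, the per-binder median log2 ratio of FLAG to Myc barcode read proportions. It came from HEK293 landing-pad cells carrying a recombined ALFA-nanobody-fused binder library, induced with 2 μg mL^−1 doxycycline and transfected with a plasmid for a FLAG-tagged target and a Myc-tagged standard. After 48 h, lysates were immunoprecipitated with anti-FLAG and anti-Myc, and circular RNA barcodes were reverse transcribed, amplified and sequenced. Each barcode needed a proportion of at least 10^−7 in both replicates and each binder at least 3 barcodes per replicate, a pseudocount of 10^−6 was added, and the replicates were pooled.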
GABARAP, O95166, sequence (O95166 whole entry, the tested form may be a part): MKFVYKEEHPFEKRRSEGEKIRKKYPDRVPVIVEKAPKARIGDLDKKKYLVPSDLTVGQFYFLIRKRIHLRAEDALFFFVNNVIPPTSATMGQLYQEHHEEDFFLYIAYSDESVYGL
Take B1: the “median log2 fold change” value is -0.372.

Regarding B2, the “median log2 fold change” value was 0.142.

Take B3: the “median log2 fold change” value came out at 0.0418.

Take B4: the “median log2 fold change” value is 0.257.

In the case of B5, the “median log2 fold change” value was -0.261.

Turning to B6, the “median log2 fold change” value was found to be 0.165.

Take B7: the “median log2 fold change” value turned out to be 0.116.

B8: the “median log2 fold change” value turned out to be 0.0318.

For the molecule B9, the “median log2 fold change” value worked out at 0.0225.

Regarding B10, the “median log2 fold change” value worked out at 0.0764.

Regarding B11, the “median log2 fold change” value stood at 0.297.

B12: the “median log2 fold change” value is -0.0329.

As for B13, the “median log2 fold change” value came to 0.196.

As to B14, the “median log2 fold change” value was 0.217.

On to B15, for which the “median log2 fold change” value is -0.325.

Take B16: the “median log2 fold change” value is 0.232.

B17: the “median log2 fold change” value turned out to be 0.283.

For the molecule B18, the “median log2 fold change” value came to 0.0503.

As for B19, the “median log2 fold change” value turned out to be 0.0666.

Take B20: the “median log2 fold change” value was 0.0549.

Turning to B21, the “median log2 fold change” value was determined as 0.116.

As to B22, the “median log2 fold change” value was 0.215.

As to B23, the “median log2 fold change” value turned out to be 0.263.

Consider B24, for which the “median log2 fold change” value is -0.00985.

For the molecule B25, the “median log2 fold change” value is -0.393.

Turning to B26, the “median log2 fold change” value was -0.0275.

Consider B27, for which the “median log2 fold change” value amounted to 0.011.

On to B28, for which the “median log2 fold change” value was found to be 0.243.

On to B29, for which the “median log2 fold change” value is -0.454.
